# Data taken from PubChem BioAssay AID2675 (National Center for Advancing Translational Sciences (NCATS), 2010).
# Among all 280,000 compounds or so, about 100 (0.036%) were called active. Inconclusive results, whose numbers are uncertain, are shown with a selection of clear calls. Calls follow the shape of the dose curve; as a rule, active = well fitted inhibition curve with a large enough effect in the signal ratio, with a control signal flat (not every such curve was filed as active); inconclusive = small, poorly fitted or top-dose-only effect, or effect the other way, or a change in a side signal; inactive = no such curve, though single readings can be large or run the other way; the % refers to the signal ratio. Potencies of inconclusive entries are doubtful fits and often do not repeat. A note “side channel” means that the fit belongs to a control or component signal, not to the main read-out.
# Biological target: Muscleblind-like protein 1 (Homo sapiens) (UniProt Q9NR56)
# UniProt Q9NR56, sequence (Q9NR56 whole entry, looked up): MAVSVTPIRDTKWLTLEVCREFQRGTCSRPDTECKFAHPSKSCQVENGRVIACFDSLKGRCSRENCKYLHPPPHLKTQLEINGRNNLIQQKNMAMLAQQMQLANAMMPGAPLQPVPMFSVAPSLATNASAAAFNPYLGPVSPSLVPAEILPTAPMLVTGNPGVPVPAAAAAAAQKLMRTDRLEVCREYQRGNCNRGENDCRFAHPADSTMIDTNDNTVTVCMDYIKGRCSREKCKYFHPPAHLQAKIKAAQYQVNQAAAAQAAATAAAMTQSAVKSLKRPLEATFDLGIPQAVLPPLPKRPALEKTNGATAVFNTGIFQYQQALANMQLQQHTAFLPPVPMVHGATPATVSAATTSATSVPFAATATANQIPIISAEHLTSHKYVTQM
# Assay: qHTS Assay for Inhibitors of MBNL1-poly(CUG) RNA binding
# Conditions: TR-FRET MBNL1-His/biotin-(CUG)12 binding, 665/545 ratio; series mostly up to 57.5 µM
# In short: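 TR-FRET readout: Ex 340 nm, 665/545 nm emission ratio, normalized to buffer-only (basal) and MBNL1-(CUG)12 controls. Complex of MBNL1-His with Biotin-(CUG)12, compounds 92 nM–58 uM, incubated 60 min at room temperature.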
# Potency is read from the fitted curve at half-maximal effect; tags tell the direction and shape of the fitted curve or compound fluorescence and quenching.
row,Compound,Potency
1,O=C(CN1C(=O)S/C(=C\c2cccs2)C1=O)Nc1ccc(C(=O)O)c(O)c1,"inconclusive: 12.6 µM [quencher, partial curve]"
2,COc1cc(=O)n(C)c2c(O)cccc12,"inconclusive: 39.8 µM [quencher, side channel, single point]"
3,O=C1CN(C(=O)COC(=O)/C=C/c2ccc(S(=O)(=O)N3CCOCC3)cc2)c2ccccc2N1,"inconclusive: 15.8 µM [quencher, side channel, partial curve]"
4,Cc1ccc(-c2csc(NC(=O)c3cccc([N+](=O)[O-])c3C(=O)O)n2)cc1,"inconclusive: 35.5 µM [quencher, side channel, single point]"
5,COc1cc(/C=N/N2C(=O)C3C4c5ccccc5C(c5ccccc54)C3C2=O)ccc1O (centres undefined),"inconclusive: 2.82 µM [inhibitor, full curve, poor fit]"
6,O=C(Nc1cccnc1)c1ccc(Cl)c([N+](=O)[O-])c1,"inconclusive: 28.2 µM [quencher, side channel, partial curve]"
7,CN1c2ccsc2/C(=N/NC(=O)c2c(F)cccc2F)CS1(=O)=O,"inconclusive: 20 µM [quencher, side channel, partial curve]"
8,CN1CC(C(=O)O)Cc2c1ccc1ccccc21 (centres undefined),"inconclusive: 14.1 µM [quencher, side channel, partial curve]"
9,O=C(CSc1ccc(Cl)cc1)NCc1ccco1,inactive
10,O=C(CCNC(=O)c1ccc([N+](=O)[O-])cc1)NCCc1ccccc1,"inconclusive: 11.2 µM [quencher, side channel, partial curve]"
11,Cc1cc(C(=O)Cn2nnc3ccccc3c2=O)c(C)n1Cc1cccs1,"inconclusive: 25.1 µM [quencher, side channel, single point]"
12,CC1(C)CC(=O)C2=C(C1)Nc1ccccc1NC2c1nc2ccccc2[nH]1 (centres undefined),"inconclusive: 39.8 µM [quencher, side channel, partial curve]"
13,COc1cccc(N2C(=O)CC(Nc3ccc(N4CCOCC4)cc3)C2=O)c1 (centres undefined),"inconclusive: 14.1 µM [quencher, side channel, partial curve]"
14,CCc1ccc(N(CC(=O)N2CCCCCC2)S(C)(=O)=O)cc1,inactive
15,CCCOC1CCCN(C(=O)c2cc(COc3ccc(-n4cncn4)cc3)on2)C1 (centres undefined),inactive
16,COc1cc(-c2nc3cccc(C)n3c2NCC2CCCO2)ccc1O (centres undefined),"inconclusive: 22.4 µM [quencher, single point]"
17,Cc1cc2ccccc2n1CCNC(=O)c1ccc(S(=O)(=O)N2CCOCC2)cc1,"inconclusive: 25.1 µM [quencher, side channel, partial curve]"
18,CC(C)c1ccc(NC(=O)CCNS(=O)(=O)c2cccc3nsnc23)cc1,"inconclusive: 22.4 µM [quencher, side channel, partial curve]"
19,ON=C1/C(=N\O)CC2(C/C1=N/O)OCCO2,"inconclusive: 25.1 µM [quencher, single point]"
20,CCC(C(=O)OCCN(CC)CC)c1ccccc1 (centres undefined),"inconclusive: 79.4 µM [inhibitor, single point]"

row,Compound,Potency
1,Cc1cc[n+](CC(=O)c2cc3ccccc3oc2=O)cc1,"inconclusive: 11.2 µM [quencher, partial curve]"
2,CC1CC(=O)N(C)c2cc([N+](=O)[O-])ccc2N1 (centres undefined),"inconclusive: 28.2 µM [quencher, side channel, single point]"
3,Cc1nc2ccccc2cc1C(=O)N/N=C/c1ccc([N+](=O)[O-])cc1,"inconclusive: 15.8 µM [quencher, side channel, partial curve]"
4,O=C(O)c1ccc(N=Nc2c(O)ccc3ncccc23)cc1,"inconclusive: 7.08 µM [quencher, side channel, partial curve]"
5,COc1ccc(OC)c(CCNC(=O)c2ccc3c(c2)N(Cc2ccc(F)cc2)CCS3)c1,inactive
6,COC(=O)c1ccc(NC(=S)NCCc2ccc(OC)cc2)cc1,inactive
7,C(=C\c1ccccn1)/c1ccccn1,"inconclusive: 14.1 µM [quencher, side channel, partial curve]"
8,COc1ccc(S(=O)(=O)Nc2ccc(NC(C)=O)cc2)cc1[N+](=O)[O-],"inconclusive: 8.91 µM [quencher, side channel, partial curve]"
9,O=C(NNc1ccccn1)C(=O)NNS(=O)(=O)c1ccc(F)cc1,inactive
10,Cc1cccc(NC(=O)c2sc(Cl)nc2C)c1C,"inconclusive: 11.2 µM [fluorescent, side channel, partial curve]"
11,CCOC(=O)N1CCN(CC(O)COc2cc(C)ccc2C(C)C)CC1 (centres undefined),"inconclusive: 2.82 µM [fluorescent, side channel, full curve, poor fit]"
12,O=C(Nc1nc2ccccc2s1)C1CCN(S(=O)(=O)c2cc([N+](=O)[O-])ccc2Cl)CC1,"inconclusive: 20 µM [quencher, side channel, single point]"
13,N#CCc1nn(-c2ccccc2)c(N)c1C#N,"inconclusive: 39.8 µM [quencher, side channel, single point]"
14,O=C(O)CC1S/C(=N/N=C2CCCCC2)N(c2ccccc2)C1=O (centres undefined),"inconclusive: 200 µM [inhibitor, partial curve]"
15,COc1cc(/C=C/c2ccc3c([N+](=O)[O-])cccc3n2)ccc1OCC(=O)O,"inconclusive: 11.2 µM [quencher, side channel, partial curve]"
16,CC(Sc1ncnc2ccccc12)C(=O)Nc1ccc2c(c1)OCO2 (centres undefined),inactive
17,CCN(CC)c1ccc2c(c1)C(=O)N(C)C2=O,"inconclusive: 28.2 µM [quencher, partial curve]"
18,COc1cc(/C=C/C(=O)OCC(=O)NC(=O)NC(C)C)cc(OC)c1OC,"inconclusive: 35.5 µM [quencher, side channel, partial curve]"
19,Cc1cc(O)ccc1C1(c2ccc(O)cc2C)OC(=O)c2ccccc21,"inconclusive: 39.8 µM [quencher, side channel, partial curve, poor fit]"
